In article PMC12136788 one finds binding signal data, which are given here for 22 molecules.

T1: UNK ZnF1-6 (called full-length) (human, UniProt Q9C0B0 30-357)
T1 sequence: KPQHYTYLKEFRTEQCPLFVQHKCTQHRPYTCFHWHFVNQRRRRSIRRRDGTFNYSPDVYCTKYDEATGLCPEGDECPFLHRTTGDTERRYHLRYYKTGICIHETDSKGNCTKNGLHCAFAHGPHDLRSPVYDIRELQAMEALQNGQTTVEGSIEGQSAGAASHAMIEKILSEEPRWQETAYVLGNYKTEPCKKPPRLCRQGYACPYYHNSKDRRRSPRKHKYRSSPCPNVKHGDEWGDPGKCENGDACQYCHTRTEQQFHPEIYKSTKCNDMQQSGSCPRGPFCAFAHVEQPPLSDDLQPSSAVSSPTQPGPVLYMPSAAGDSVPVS

B1: chr2:25738620:25738721:-|3pUTR|ENSG00000143970|unk|total|mutant (ssRNA)
RNA: GGGAGUUCUACAGUCCGACGAUCAUACAUAUUAAUGACCUGACAGUUAACAUUCUGUUGUUUAUUAUUGCCUUUCUCCACCUCCGAGAGCCAUAAAUAACUCUCUGGUGAAGUGAUUUGCUAUAAUGGGGGUGAGGAGUGGGGCAACAGAGGAUUGAGCAUCA
B2: chr1:173887777:173887878:+|3pUTR|ENSG00000185278|unk|FALSE|unique (ssRNA)
RNA: GGGAGUUCUACAGUCCGACGAUCAAAGAGAUUUGGCAGAGGGACAGGUUGUACCUGCACUGGUGAACCAUCUGUGAGAAUGUUAGUCAUGUGCUCCUUUCCUGAGAUUGCUUUGUGGUAUGUGAAAAGGUGGGUAGAAAAGAACAACAGAGGAUUGAGCAUCA
B3: chr10:73916565:73916770:+|3pUTR|ENSG00000122861|msi1|FALSE|unique (ssRNA)
RNA: GGGAGUUCUACAGUCCGACGAUCCUGGUUGUCAUUUUUGCAGUAGAGUCAUCUCCAUCAGCUGUAAGAAGAGACUGGGAAGAUAGGCUCUGCACAGAUGGAUUUGCCUGUGCCACCCACCAGGGCGAACGACAAUAGCUUUACCAACAGAGGAUUGAGCAUCA
B4: ENSG00000198589:be:win_4451|CDS|ENSG00000198589|bound_else_gene|NA|bound_elsewhere_windowed (ssRNA)
RNA: GGGAGUUCUACAGUCCGACGAUCCUGCAGCGAAGAGCCCAGUGGACAUUGUGACUGGCGGUAUAUCUCCAGUAAGAGAUCUUGACAGGCUUCUACAGGACAUGGAUAUUAAUCGGCUUAGGGCAGUUGUUUUCAGAGACAUAGCAACAGAGGAUUGAGCAUCA
B5: ENSG00000136451:be:win_2451|3pUTR|ENSG00000136451|bound_else_gene|NA|bound_elsewhere_windowed (ssRNA)
RNA: GGGAGUUCUACAGUCCGACGAUCUUUAAAUUGGAAGACGCUGGAGGCACUGGGAUGUGAUAUGCCCCUCUCUCUCCCAAUCAGAGCCUGUUGAUAUUACAACAGGGACAGAUGUGUUAGUUGCUCACUAGAGUUUAUGUCUUACAACAGAGGAUUGAGCAUCA
B6: chr5:173956200:173956301:+|3pUTR|ENSG00000113742|unk|total|mutant (ssRNA)
RNA: GGGAGUUCUACAGUCCGACGAUCCCCCUUCCUCAACCUCUUCACGCUGGCAUGUCCUUUUGCCGCAGUCUGUAACUUAACUACCGUAUAAUGAAAAGAAUGACCUAUAAUACCGGUGUUUUGCCGAUUCUUGUGUCACUGCAACAACAGAGGAUUGAGCAUCA
B7: chr1:17067390:17067767:-|3pUTR|ENSG00000117115|msi1|total|mutant (ssRNA)
RNA: GGGAGUUCUACAGUCCGACGAUCCCCAACAUGCAAAGCCCACAUUUAAAGGCCAGCCUCUGCCCCUUCAGUGAUGCGCUCUUCCGAAAUGCCAGUCCACUAUAUUCAGAAAUCCGCAGGGCACAAAACUUCCAGCAAGUCACUCAACAGAGGAUUGAGCAUCA
B8: chr1:93152962:93153063:-|3pUTR|ENSG00000117500|msi1|total|mutant (ssRNA)
RNA: GGGAGUUCUACAGUCCGACGAUCGCUGGAAUUCUUGAUGAGCAAUAAUGAUAACCAGAGAGUGAUUUCAUUUACACUCACCGCCGUAUAAAAAGAGAUACAUUUCCCUCUCCGGCCCCUGGGAGAAGAGCAGCUCCGAUUUCCCAACAGAGGAUUGAGCAUCA
B9: chr7:114979563:114979664:+|CDS|ENSG00000135272|unk|total|mutant (ssRNA)
RNA: GGGAGUUCUACAGUCCGACGAUCCCAACCUCAGCGCUUGCCUCAGCUUCAGACUUCAGCCCAGGUGCCAAGUGGUGAGGAAACCGGCAAGAUAAAGAACGGCCACACAGGUCUGAGCAAUGGAAAUGGAAUUCACCACGGGGCCAACAGAGGAUUGAGCAUCA
B10: chr12:129073877:129075059:-|CDS|ENSG00000151952|control|control|control (ssRNA)
RNA: GGGAGUUCUACAGUCCGACGAUCACCUUCACCGCCGUCUCCUCAGACGACGAGUACCCCACCAGGAACUCCAUCGUGAUGAGUAGCGAGGAUGACAUUAAGUGGGUCUGCCAGGAUCUGGACCCUGGGGACUGCAAAGAGCUGCAACAGAGGAUUGAGCAUCA
B11: chr13:108210031:108210147:-|CDS|ENSG00000174405|unk|FALSE|unique (ssRNA)
RNA: GGGAGUUCUACAGUCCGACGAUCAUGGUUAAUAAUAAAAAGCUAGGGCAUGAGACUCUGAGAAAGAGGUAUGAGAUUCUUAGUAGUAUUUUUACACCAAUUCCAGGUAGAAUAGAAAUAGUGCAGAAAACACAAGCUCAUACUCAACAGAGGAUUGAGCAUCA
B12: chr5:40972473:40972581:+|CDS|ENSG00000112936|unk|FALSE|unique (ssRNA)
RNA: GGGAGUUCUACAGUCCGACGAUCAAAACCUUUCUACACAGUUGGUGAGAAGGUGACUGUUUCCUGUUCAGGUGGCAUGUCCUUAGAAGGUCCUUCAGCAUUUCUCUGUGGCUCCAGCCUUAAGUGGAGUCCUGAGAUGAAGAACAACAGAGGAUUGAGCAUCA
B13: chr9:124878635:124878736:-|3pUTR|ENSG00000136935|msi1|total|mutant (ssRNA)
RNA: GGGAGUUCUACAGUCCGACGAUCCCAGCCAUUGAACUGGUCCCACACGCACCCCAGGCCCCACUCCUCGGCAGUUUCAGGUGCCGCUGUGGGGCCCGUUCCCCGGUCUGUACUCACUUCCGGGAGGCUUCACUGACCCGGCUUCAACAGAGGAUUGAGCAUCA
B14: chr2:201645282:201645383:-|CDS|ENSG00000082126|unk|FALSE|unique (ssRNA)
RNA: GGGAGUUCUACAGUCCGACGAUCUACUAUCCAUAUUUUUCUAUUUCUCCUAAAGGAUGAAGACCUACAAGAGAUGGAAAAUUUAGCCCAAAGAAUGGAAACUCAGUUUGGCCAAUUUUUUGAUCAUGUGAUUGUGAAUGACAGCAACAGAGGAUUGAGCAUCA
B15: chr17:50110931:50111032:+|3pUTR|ENSG00000005882|unk|total|mutant (ssRNA)
RNA: GGGAGUUCUACAGUCCGACGAUCUGUGCCCAGACAUGUGUGCUCAGGGUGGCUUUCUCCCCCGGACCUUCUGUGUAUACCGUCCGUUUUAUAACCCUGAAUGCCCCCACCCUUCCCCUAAGCACACAGGGGUUAAAGCUGUGUCAACAGAGGAUUGAGCAUCA
B16: chr2:216674221:216674322:-|3pUTR|ENSG00000115461|msi1|FALSE|unique (ssRNA)
RNA: GGGAGUUCUACAGUCCGACGAUCGCAUGCCCCAUCUCUCUGCACAGCUGUCCCCUAAACCCAACUCACGUUUCUGUAUGUCUUAGGCCAGUAUCCCAAACCUCUUCCACGUCACUGUUCUUUCCACCCAUUCUCCCUUUGCAUCAACAGAGGAUUGAGCAUCA
B17: chr5:111496093:111496242:-|3pUTR|ENSG00000164211|unk|total|mutant (ssRNA)
RNA: GGGAGUUCUACAGUCCGACGAUCUUUACAUGUACCGUUAAAUAUUAAAAUUCAUCUCUUGCAGUUCAAUAAAAGCUACCGUACCGAUUUUAUUUUUAAGAAGUUUAUAUAAUUCUUUUGUGAACCAAUAUGUAAAACCCGAAUCAACAGAGGAUUGAGCAUCA
B18: chr3:62294137:62294238:+|3pUTR|ENSG00000144724|msi1|total|mutant (ssRNA)
RNA: GGGAGUUCUACAGUCCGACGAUCUGAGACCCUUCCGUUAUUCUCCAUUAAUGCUUCUCCGUUUGUAAUACCAUACCUCACAGCCGGCCGAAGAAUGAAAACUUCUGCAGGUGUGUAAUUUUGAAACCCGUCCUCUAAAAAUUCCAACAGAGGAUUGAGCAUCA
B19: chr11:108173179:108173289:-|CDS|ENSG00000149308|unk|total|mutant (ssRNA)
RNA: GGGAGUUCUACAGUCCGACGAUCUGGUUCCAAGUCAUCAGAUUCCCGUGAAGUUCACAAGAGUAAAACCGAAAUUAAUGUGUCCGAACCAGUUAUGUCACAGCUAUCAAAUUGCCAAGAUAAUUCUUGUCUUCAAAGUGAAAUCAACAGAGGAUUGAGCAUCA
B20: ENSG00000084652:stop:overlap|stop_codon|ENSG00000084652|stop_codon|NA|stop_codon (ssRNA)
RNA: GGGAGUUCUACAGUCCGACGAUCCACCGAGCACAGAAGCAUCAGGCCAGACUGGGCCUCAAGAGCCCACCUCCGCCAGGGCCUAGAGAGCCUGGUGUUGGGUCAUGCUGGGAAGGGAGCGGCAGCCCAGCCAGGCCUGGCCCACAACAGAGGAUUGAGCAUCA
B21: chr6:105097214:105097376:-|3pUTR|ENSG00000112276|msi1|FALSE|unique (ssRNA)
RNA: GGGAGUUCUACAGUCCGACGAUCCAUGCCUUGGUUUCCUCUCCCUUCCCUCUUUCCAAUCCUGGUUUCCUAACCUCCUCUUGUAGUAAUUCUCAACUCAACUCAAAGUCCCAAGAAUUUGGAAUGGUAGGAUGCUGUGCGGGGCAACAGAGGAUUGAGCAUCA
B22: chr8:122953881:122953982:+|CDS|ENSG00000178764|msi1|FALSE|unique (ssRNA)
RNA: GGGAGUUCUACAGUCCGACGAUCGAGUCGAGCGUUGUGGAUUACGUGGAGGUGACGGUCGGGGAGGAGGAUGCGAUCUCAGAUAGAUCAGAUAGCUGGAGUCAGGCUGCGGCAGAAGGUGUGUCGGAACUGGCUGAAUCAGACCAACAGAGGAUUGAGCAUCA

The other results are listed elsewhere or left out.

The target in this assay is T1, UNK ZnF1-6 (called full-length). Description: nsRBNS (natural sequence RNA bind-n-seq); RBNS binding buffer (assumed for nsRBNS): 25 mM Tris pH 7.5, 150 mM KCl, 3 mM MgCl2, 0.01% Triton X-100, 500 ug/ml BSA, 20 U/ml SUPERase-In, 4 C; UNK is unkempt and MSI1 is Musashi-1; names of the RNAs are library labels; protein concentration not given here; high values mean tight binding.
For the molecule B1, the binding signal was 0.756 enrichment R. Next, B2: 0.823 enrichment R. Molecule B3 had a binding signal of 0.796 enrichment R. Next, B4: 0.641 enrichment R; B5: 1.39 enrichment R. Next, B6: 0.713 enrichment R; B7: 0.702 enrichment R; B8: 0.576 enrichment R. B9: the binding signal worked out at 0.687 enrichment R. Take B10: the binding signal is 0.719 enrichment R. Next, B11: 0.761 enrichment R. Next, B12: 0.396 enrichment R. Next, B13: 0.625 enrichment R.

The molecule B14 registered a binding signal of 0.802 enrichment R. B15: the binding signal is 1.06 enrichment R. The molecule B16 gave a binding signal of 0.949 enrichment R. In turn, B17 had a binding signal of 1.21 enrichment R. Next, B18: 0.513 enrichment R; B19: 0.233 enrichment R; B20: 0.831 enrichment R.

Consider B21, for which the binding signal came to 0.769 enrichment R.

B22: the binding signal was 1.03 enrichment R.
